According to patent publication EP4755449A2:

Legend:
Test in all cases: SPR 25C
[1] = target: cyno Fc gamma RIIIaS extracellular domain, His-tagged (cynomolgus monkey) (UniProt Q8SPW2)
[2] = target: cyno Fc gamma RIIa1 extracellular domain, His-tagged (cynomolgus monkey)
[3] = target: cyno Fc gamma RIIa2 extracellular domain, His-tagged (cynomolgus monkey)
[4] = target: cyno Fc gamma RIIa3 extracellular domain, His-tagged (cynomolgus monkey)
[5] = target: cyno Fc gamma RIIb extracellular domain, His-tagged (cynomolgus monkey)
Chain of cyno Fc gamma RIIb extracellular domain, His-tagged (cynomolgus monkey) (chain, as listed by the source): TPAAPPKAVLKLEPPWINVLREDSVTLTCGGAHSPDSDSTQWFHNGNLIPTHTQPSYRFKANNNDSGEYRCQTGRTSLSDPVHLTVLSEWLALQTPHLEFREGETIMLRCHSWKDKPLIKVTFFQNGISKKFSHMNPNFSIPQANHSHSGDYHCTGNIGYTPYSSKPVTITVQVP

Chain of UniProt Q8SPW2 (Q8SPW2 other isoform, or with tags, fused parts or gaps): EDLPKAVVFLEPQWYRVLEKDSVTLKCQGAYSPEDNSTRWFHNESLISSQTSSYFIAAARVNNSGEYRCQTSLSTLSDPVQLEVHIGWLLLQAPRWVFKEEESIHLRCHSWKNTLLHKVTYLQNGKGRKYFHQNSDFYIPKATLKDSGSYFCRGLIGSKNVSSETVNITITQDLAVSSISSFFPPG

Row | Binder | relative binding [1] | relative binding [2] | relative binding [3] | relative binding [4] | relative binding [5]
1 | M103205H795-SG179/M103202L889-SK1 (antibody, human IgG1, kappa) heavy: QVTLKESGPVLVKPTETLTLTCTVSGIDLSHDDISWVRQAPGKGLEWVGIISYAGSTYYASWAKGRLTISKDTSKNQVVLTMTNMDPVDTATYYCARGVPAYSHGGDLWGQGTLVTVSSASTKGPSVFPLAPSSKSTSGGTAALGCLVKDYFPEPVTVSWNSGALTSGVHTFPAVLQSSGLYSLSSVVTVPSSSLGTQTYICNVNHKPSNTKVDKKV[letters of human IgG1 Fc with A327I (EU numbers) not shown] light: DIVMTQSPATLSLSPGERATLSCTSSQSVYHANWLSWFQQKPGQPPKLLIYWASTLAYGVPSRFSGSGSGTDFTLTISSLQPEDAATYYCAGGYGGGRYAFGQGTKVEIKRTVAAPSVFIFPPSDEQLKSGTASVVCLLNNFYPREAKVQWKVDNALQSGNSQESVTEQDSKDSTYSLSSTLTLSKADYEKHKVYACEVTHQGLSSPVTKSFNRGEC | 48 SG1=100 | 19 SG1=100 | 17 SG1=100 | 28 SG1=100 | 19 SG1=100
2 | M103205H795-SG178/M103202L889-SK1 (antibody, human IgG1, kappa) heavy: QVTLKESGPVLVKPTETLTLTCTVSGIDLSHDDISWVRQAPGKGLEWVGIISYAGSTYYASWAKGRLTISKDTSKNQVVLTMTNMDPVDTATYYCARGVPAYSHGGDLWGQGTLVTVSSASTKGPSVFPLAPSSKSTSGGTAALGCLVKDYFPEPVTVSWNSGALTSGVHTFPAVLQSSGLYSLSSVVTVPSSSLGTQTYICNVNHKPSNTKVDKKV[letters of human IgG1 Fc with N325E (EU numbers) not shown] light: DIVMTQSPATLSLSPGERATLSCTSSQSVYHANWLSWFQQKPGQPPKLLIYWASTLAYGVPSRFSGSGSGTDFTLTISSLQPEDAATYYCAGGYGGGRYAFGQGTKVEIKRTVAAPSVFIFPPSDEQLKSGTASVVCLLNNFYPREAKVQWKVDNALQSGNSQESVTEQDSKDSTYSLSSTLTLSKADYEKHKVYACEVTHQGLSSPVTKSFNRGEC | 36 SG1=100 | 22 SG1=100 | 21 SG1=100 | 29 SG1=100 | 26 SG1=100

Results, then the binder that gave them:

Row | relative binding [1] | relative binding [2] | relative binding [3] | relative binding [4] | relative binding [5] | Binder
3 | 20 SG1=100 | 14 SG1=100 | 15 SG1=100 | 19 SG1=100 | 16 SG1=100 | M103205H795-SG176/M103202L889-SK1 (antibody, human IgG1, kappa) heavy: QVTLKESGPVLVKPTETLTLTCTVSGIDLSHDDISWVRQAPGKGLEWVGIISYAGSTYYASWAKGRLTISKDTSKNQVVLTMTNMDPVDTATYYCARGVPAYSHGGDLWGQGTLVTVSSASTKGPSVFPLAPSSKSTSGGTAALGCLVKDYFPEPVTVSWNSGALTSGVHTFPAVLQSSGLYSLSSVVTVPSSSLGTQTYICNVNHKPSNTKVDKKV[letters of human IgG1 Fc with N325I (EU numbers) not shown] light: DIVMTQSPATLSLSPGERATLSCTSSQSVYHANWLSWFQQKPGQPPKLLIYWASTLAYGVPSRFSGSGSGTDFTLTISSLQPEDAATYYCAGGYGGGRYAFGQGTKVEIKRTVAAPSVFIFPPSDEQLKSGTASVVCLLNNFYPREAKVQWKVDNALQSGNSQESVTEQDSKDSTYSLSSTLTLSKADYEKHKVYACEVTHQGLSSPVTKSFNRGEC
4 | 21 SG1=100 | 15 SG1=100 | 15 SG1=100 | 25 SG1=100 | 18 SG1=100 | M103205H795-SG177/M103202L889-SK1 (antibody, human IgG1, kappa) heavy: QVTLKESGPVLVKPTETLTLTCTVSGIDLSHDDISWVRQAPGKGLEWVGIISYAGSTYYASWAKGRLTISKDTSKNQVVLTMTNMDPVDTATYYCARGVPAYSHGGDLWGQGTLVTVSSASTKGPSVFPLAPSSKSTSGGTAALGCLVKDYFPEPVTVSWNSGALTSGVHTFPAVLQSSGLYSLSSVVTVPSSSLGTQTYICNVNHKPSNTKVDKKV[letters of human IgG1 Fc with N325L (EU numbers) not shown] light: DIVMTQSPATLSLSPGERATLSCTSSQSVYHANWLSWFQQKPGQPPKLLIYWASTLAYGVPSRFSGSGSGTDFTLTISSLQPEDAATYYCAGGYGGGRYAFGQGTKVEIKRTVAAPSVFIFPPSDEQLKSGTASVVCLLNNFYPREAKVQWKVDNALQSGNSQESVTEQDSKDSTYSLSSTLTLSKADYEKHKVYACEVTHQGLSSPVTKSFNRGEC
